A word on the GI50: it is the concentration giving 50% growth inhibition.

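Five concentrations, 48 hours, 96-well plates. GI50: concentration for 50% inhibition of growth.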 Activity calls are given as the source filed them. Cut-off read from the data, not from the text of the source: active = GI50 up to about 1.1 µM and inactive = higher.

The test concerns NCI-H322M. Put plainly: DTP human tumour cell line panel, 48 h.
As for `CCO[C@@H]1OC(=O)[C@@](C)(C(C)=O)[C@@H]1C`, the GI50 was inactive: 16.1 µM.

For the compound `O=C(O)c1ccccc1NC(c1ccccc1)c1ccc2cccnc2c1O` (stereo not given), the GI50 is inactive: 4.28 µM.

For the compound `CCOP1(=O)C=C(Sc2ccc([N+](=O)[O-])cc2[N+](=O)[O-])C(C)(C)O1` (stereo not given), the GI50 was inactive: 21.1 µM.

`COc1cccc2c(=O)oc(-c3ccccc3C)nc12`: the GI50 was inactive: 79.3 µM.

Turning to `O=C1[C@H]2ON(c3ccccc3)C(c3ccc(Cl)cc3Cl)[C@H]2C(=O)N1c1ccc(Cc2ccc(N3C(=O)[C@@H]4ON(c5ccccc5)C(c5ccc(Cl)cc5Cl)[C@@H]4C3=O)cc2)cc1` (stereo not given in full), the GI50 is inactive: > 100 µM.

In the case of `C/C(=N\Nc1nc2cccnc2s1)c1ccccn1`, the GI50 is active: 0.0598 µM.

`COc1cc(Nc2nc3ccccc3nc2-c2cccs2)cc(OC)c1OC`: the GI50 was inactive: 52.1 µM.

For `c1ccc2c(c1)OCCOCCOc1ccccc1OCCO2`, the GI50 is inactive: > 100 µM.

As to `Nc1c(C(=O)O)nnc2cc(Cl)c(Cl)cc12`, the GI50 is inactive: > 100 µM.

As to `N#Cc1cccnc1Cl`, the GI50 is inactive: > 100 µM.

`COc1ccc2c(c1)C1OCCNC1CC2` (stereo not given): the GI50 is inactive: > 100 µM.

For the compound `C[C@H](N)C(=O)Nc1ccc(-c2nc3ccccc3s2)cc1Cl`, the GI50 was inactive: 14 µM.

Consider `CC/C(=N\NC(=O)c1cccnc1)c1ccc2c(c1)OCCO2`, for which the GI50 was inactive: > 100 µM.

Regarding `CC(C)C1CSC2N1C(=O)C2(OCc1ccccc1)C1CC1` (stereo not given), the GI50 was inactive: > 100 µM.

Consider `COC(=O)/C(=C/c1ccc(OC)cc1)NC(=O)c1ccccc1`, for which the GI50 was inactive: > 100 µM.

`Cc1cc2c(cc1Cl)SC(NNC(=O)c1ccco1)=NS2(=O)=O`: the GI50 is inactive: > 10 µM.

With `COC[C@@H](/N=C/c1ccc(OC)cc1)C(C)C`, the GI50 was inactive: > 100 µM.

As for `COc1cc2c(cc1OC)C(CC(=O)NN=C(C)C)NCC2` (stereo not given), the GI50 is inactive: > 100 µM.

As for `N#Cc1cc([N+](=O)[O-])ccc1NC(=O)C(=O)C(C(=O)c1ccc2ccccc2c1)C1OCc2ccccc21` (stereo not given), the GI50 is inactive: 10.6 µM.

`Cc1cc(NS(=O)(=O)c2ccc(Nc3c4ccccc4nc4c(C(=O)N5CCN(CCO)CC5)cccc34)cc2)no1`: the GI50 is inactive: > 100 µM.

With `Nc1nc2c(c(=O)[nH]1)NC(CO)CN2` (stereo not given), the GI50 was inactive: > 100 µM.

For `CN1CCC(SC2Cc3cc(Cl)ccc3Sc3ccccc32)CC1` (stereo not given), the GI50 was inactive: 13.2 µM.

Consider `CCc1c(Cc2cccc3ccccc23)n2c(nc1=O)SCC2OCCO` (stereo not given), for which the GI50 was inactive: 95.9 µM.

As for `Cn1ncc(=S)[nH]c1=S`, the GI50 was inactive: > 100 µM.

Consider `CC1=C(C(=O)Nc2ccccc2)C(c2ccc(Cl)c(Cl)c2)C(C(=O)Nc2ccccc2)=C(C)N1`, for which the GI50 was inactive: 15.7 µM.

For the compound `N#Cc1ccccc1NC(=O)/C(=N\NC(=O)c1ccncc1)C(c1cnc2ccc([N+](=O)[O-])cc2n1)[N+](=O)[O-]` (stereo not given), the GI50 is inactive: > 100 µM.

Turning to `Cc1cnc(NCCCN(C)C)c2c1[nH]c1ccc3cc(O)ccc3c12`, the concentration for 50% growth inhibition (GI50) was active: 0.419 µM.

Regarding `Cc1cc2c(c(C(=O)O)c1C)-c1cccc(Cl)c1C2=O`, the GI50 was inactive: > 100 µM.

On to `O=C1c2ccccc2C2(O)Nc3c(ccc4ccccc34)C12O` (stereo not given), for which the GI50 is inactive: > 100 µM.

As for `CCOC(=O)C1(C(=O)OCC)C=C(c2ccccc2)N(C2OC(COC(C)=O)C(OC(C)=O)C(OC(C)=O)C2OC(C)=O)C1=S` (stereo not given), the GI50 was inactive: > 100 µM.

As to `Cc1ccc(C)c(NC(=O)CCc2n[nH]c(=S)o2)c1`, the GI50 is inactive: > 100 µM.

For `COc1nc(NC2OC(COC(C)=O)C(OC(C)=O)C(OC(C)=O)C2OC(C)=O)c2c(OC(C)=O)c(C)c(=O)oc2n1` (stereo not given), the GI50 was inactive: > 100 µM.

Consider `c1ccc(CN2CCCCC(Sc3ccccc3)CC2)cc1` (stereo not given), for which the GI50 is inactive: > 100 µM.

On to `Nc1nc(N)c2ncn(Cc3c(Cl)cccc3Cl)c2n1`, for which the GI50 was inactive: > 100 µM.

For the compound `C/C(CC(=O)Nc1ccccc1[N+](=O)[O-])=N\NC(N)=O`, the GI50 is inactive: > 100 µM.

In the case of `O=c1ccn2n1Cc1ccccc1C2`, the GI50 was inactive: > 100 µM.

Take `COC(=O)c1cncc2c1CC1C3(C(=O)OC)C=NC(C4C(CO)=CCC43)C21C` (stereo not given): the GI50 was inactive: > 100 µM.

In the case of `CN1CCN(C(=S)N(C(=O)c2cccs2)c2ccccc2)CC1`, the GI50 was inactive: > 100 µM.

With `COC(=O)C1=C(C)NC(C)=C(C(=O)OC)C1c1ccc(/[N+]([O-])=C/c2ccccc2)cc1`, the GI50 is inactive: > 100 µM.

Regarding `CCCCCCCCCCCCCOCCOCCOCCCCC(O)CCCCCCCCCC1=C[C@H](C)OC1=O` (stereo not given in full), the GI50 was inactive: 16.8 µM.

As for `CCN(CC)c1ncnc2c1ncn2CCNC(CO)(CO)CO`, the GI50 is inactive: > 100 µM.

For the compound `O=C1CCC(=O)N1Cc1ccccc1/N=[N+](\[O-])c1ccccc1CN1C(=O)CCC1=O`, the GI50 was inactive: > 100 µM.

For `CS(=O)(=O)Nc1ccc(N2Cc3c[nH]c4ccc5nccc2c5c34)cc1`, the GI50 is inactive: 12.4 µM.

As for `COc1cc2c(cc1OC)C(=O)/C(=C/c1ccccc1)CC2`, the GI50 is inactive: 60.4 µM.

In the case of `CCCCCCCCCCCC1=NCCN1`, the GI50 was inactive: > 100 µM.

On to `N#Cc1nc(CN2C(=O)c3ccccc3C2=O)oc1N`, for which the GI50 is inactive: > 100 µM.

As for `O=C(CCC(=O)Nc1cccc(Cl)c1)CC(=O)c1ccc(F)cc1`, the GI50 was inactive: > 100 µM.

As to `CC(=O)Oc1c2c(c(OC(C)=O)c3c1n(C(C)=O)c1ccccc1n3C(C)=O)n(C(C)=O)c1ccccc1n2C(C)=O`, the GI50 was inactive: 5.04 µM.

For `COC(=O)C1(C(=O)OC)CC2=C(S(=O)(=O)c3ccccc3)C[C@@H](C#N)[C@H]2C1`, the GI50 is inactive: > 100 µM.

Take `COc1ccc(/C=N/n2c(C)n[nH]c2=O)cc1`: the GI50 was inactive: > 100 µM.

Take `C=C1[C@@H](OC(C)=O)[C@H]2[C@@H](OC(C)=O)[C@@](C)(OC(C)=O)C[C@]2(OC(C)=O)C(=O)[C@@H](C)/C=C/C(C)(C)C(=O)C[C@H]1OC(C)=O`: the GI50 is inactive: > 100 µM.

Regarding `CC(=O)OC1COC(N2C(=O)C(=O)c3c(C)cc(Cl)nc32)C(OC(C)=O)C1OC(C)=O` (stereo not given), the GI50 is inactive: > 100 µM.

With `Cc1ccc(-c2nc3c(C(=O)NCCN(C)C)cccc3[nH]2)cc1`, the GI50 is inactive: 14.9 µM.

On to `COc1ccc(CNc2nc(NCc3ccc(OC)cc3)nc(Nc3ccccc3)n2)cc1`, for which the GI50 was inactive: 5 µM.

For the compound `c1ccc2c(c1)OC(N1CCCC1)c1cnc(N3CCOCC3)nc1-2` (stereo not given), the GI50 was inactive: 43.6 µM.

As for `Cc1ccc2ccc(=O)oc2c1`, the GI50 was inactive: > 100 µM.

For the compound `c1ccc2c(-c3csc(-c4c[nH]c5ccccc45)n3)c[nH]c2c1`, the GI50 was inactive: > 100 µM.

Take `CN(C)/N=N/c1ccc(C(N)=O)cc1`: the GI50 is inactive: > 100 µM.

Consider `COc1cc(-c2oc3c(OC)cc(OC)c(O)c3c(=O)c2OC)cc(OC)c1OC`, for which the GI50 was inactive: 71.9 µM.

In the case of `O=c1c(C(c2cnc3ccccc3c2)c2c(O)oc3ccccc3c2=O)c(O)oc2ccccc12`, the GI50 is inactive: 37.7 µM.

These data come from ChEMBL document CHEMBL1201862, “PubChem BioAssay data set” (2004).
